According to article PMC4650712, “Conversion of cell-survival activity of Akt into apoptotic death of cancer cells by two mutations on the BIM BH3 domain” (Cell Death & Disease, 2015):
Square brackets hold non-standard residues; d marks the D form. pS = N[C@@H](COP(=O)(O)O)C(=O)O

T1: mouse BCL-XL (residues 1-44 and 85-196) (mouse, UniProt Q64373-1 1-44; Q64373-1 85-196)
T1 construct: mouse BCL-XL, residues 1-44; mouse BCL-XL, residues 85-196; Residues 45-84 are left out; Cloned into pProEX-HTa; the tag was cleaved with TEV protease; source: E. coli BL21(DE3), purified (Ni-NTA, HiTrap Q); not shown: His6, N-terminal, cleaved
T1 chain (looked up): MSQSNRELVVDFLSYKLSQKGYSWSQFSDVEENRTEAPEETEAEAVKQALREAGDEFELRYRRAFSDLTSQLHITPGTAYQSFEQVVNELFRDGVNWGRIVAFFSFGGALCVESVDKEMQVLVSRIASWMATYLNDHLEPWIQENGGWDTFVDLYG


Legend:
[1] = biological target: recombinant BCL-2 (UniProt P10417); assay: ITC; peptide (0.2 mM) titrated into BCL-2 or BCL-XL (20 uM); 25 C; 20 mM Tris-HCl pH 7.5, 350 mM NaCl; iTC200; three independent experiments
[2] = biological target: T1, mouse BCL-XL (residues 1-44 and 85-196); assay: as above; conditions: both partners purified

| Kd [1] [nM] | Kd [2] [nM] | Binder |
| --- | --- | --- |
| 8.55 | 9.9 | Ac-EIWIAQELRRRGD[pS]FNAYYAR-NH2 (SMILES CC[C@H](C)[C@H](NC(=O)[C@H](Cc1c[nH]c2ccccc12)NC(=O)[C@@H](NC(=O)[C@H](CCC(=O)O)NC(C)=O)[C@@H](C)CC)C(=O)N[C@@H](C)C(=O)N[C@@H](CCC(N)=O)C(=O)N[C@@H](CCC(=O)O)C(=O)N[C@@H](CC(C)C)C(=O)N[C@@H](CCCNC(=N)N)C(=O)N[C@@H](CCCNC(=N)N)C(=O)N[C@@H](CCCNC(=N)N)C(=O)NCC(=O)N[C@@H](CC(=O)O)C(=O)N[C@@H](COP(=O)(O)O)C(=O)N[C@@H](Cc1ccccc1)C(=O)N[C@@H](CC(N)=O)C(=O)N[C@@H](C)C(=O)N[C@@H](Cc1ccc(O)cc1)C(=O)N[C@@H](Cc1ccc(O)cc1)C(=O)N[C@@H](C)C(=O)N[C@@H](CCCNC(=N)N)C(N)=O, human BIM BH3 core region, residues 145-165, with I155R and E158S; Ser158 is phosphorylated; also called phosphorylated BH3BIM(I155R/E158S); p-BIMBH3(I155R/E158S); source: synthetic peptide, bought: Peptron) [p-BH3BIM(I155R/E158S), 21-mer peptide phosphorylated at Ser158] |
| – | ~40 | Ac-EIWIAQELRSRGD[pS]FNAYYAR-NH2 (peptide, UniProt O43521 145-165, looked up, SMILES CC[C@H](C)[C@H](NC(=O)[C@H](Cc1c[nH]c2ccccc12)NC(=O)[C@@H](NC(=O)[C@H](CCC(=O)O)NC(C)=O)[C@@H](C)CC)C(=O)N[C@@H](C)C(=O)N[C@@H](CCC(N)=O)C(=O)N[C@@H](CCC(=O)O)C(=O)N[C@@H](CC(C)C)C(=O)N[C@@H](CCCNC(=N)N)C(=O)N[C@@H](CO)C(=O)N[C@@H](CCCNC(=N)N)C(=O)NCC(=O)N[C@@H](CC(=O)O)C(=O)N[C@@H](COP(=O)(O)O)C(=O)N[C@@H](Cc1ccccc1)C(=O)N[C@@H](CC(N)=O)C(=O)N[C@@H](C)C(=O)N[C@@H](Cc1ccc(O)cc1)C(=O)N[C@@H](Cc1ccc(O)cc1)C(=O)N[C@@H](C)C(=O)N[C@@H](CCCNC(=N)N)C(N)=O, human BIM BH3 core region, residues 145-165, with R154S, I155R and E158S; also called p-BIMBH3(R154S/I155R/E158S); source: synthetic peptide, bought: Peptron) [p-BH3BIM(R154S/I155R/E158S), 21-mer peptide phosphorylated at Ser158] |
| 192 | 189 | Ac-EIWIAQELRRRGDSFNAYYAR-NH2 (human BIM BH3 core region, residues 145-165, with I155R and E158S; also called unphosphorylated BH3BIM(I155R/E158S); the designed peptide; source: synthetic peptide, bought: Peptron) [BH3BIM(I155R/E158S) 21-mer peptide] |
